{"source": "the supplement of paper PMC10126150", "note": "Sequences with one replicate were seen in a single cluster, so their values are uncertain.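 Further: ATP exposure 15 min at 22 °C before imaging.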"}
{"test_system": "ATP", "test": "switch fluorescence ratio, 500 uM ATP over buffer (Cy3 cluster intensity, sum of 5 cycles each) (fold (ratio)); higher = stronger signal-on switching upon ATP binding; sequences stand for … in TCGTCGGCAGCGTCAGATGTGTATAAGAGACAGTTTTTTTTTTTTTTTTTTTTTTTTT…TC", "details": "aptamer strand: ATP DNA aptamer (quencher-CACCTGGGGGAGTATTGCGGAGGAAGG + anchor), 100 nM annealed; ATP concentration: 500 uM; one replicate", "how_it_was_run": "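Clusters carrying Cy3-labelled switching strands on a modified Illumina MiSeq flow-cell were annealed to 100 nM quencher-labelled ATP aptamer and imaged in selection buffer. They were imaged again after 15 min with 500 uM ATP at 22 °C, over five buffer/ATP cycles with NaOH stripping and re-annealing in between. For each cluster, the fluorescence ratio is the summed Cy3 intensity of the target cycles divided by that of the buffer cycles, averaged per switch-domain sequence. Clusters outside 100-1000 RFU were left out.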"}
{"sequence": "GTGAGGACCC", "switch fluorescence ratio": 0.939}
{"sequence": "GTGATAGGTG", "switch fluorescence ratio": 1.11}
{"sequence": "GTGATCACAG", "switch fluorescence ratio": 0.971}
{"sequence": "GTGATCTGGA", "switch fluorescence ratio": 0.962}
{"sequence": "GTGATGAAAA", "switch fluorescence ratio": 0.919}
{"sequence": "GTGATGACCC", "switch fluorescence ratio": 1.02}
{"sequence": "GTGATGCTGG", "switch fluorescence ratio": 0.979}
{"sequence": "GTGATGGAGT", "switch fluorescence ratio": 0.996}
{"sequence": "GTGATTAGTC", "switch fluorescence ratio": 1}
{"sequence": "GTGATTGCAG", "switch fluorescence ratio": 0.989}
{"sequence": "GTGCACCCCA", "switch fluorescence ratio": 0.972}
{"sequence": "GTGCACCGGC", "switch fluorescence ratio": 1.03}
{"sequence": "GTGCACTT", "switch fluorescence ratio": 1.03}
{"sequence": "GTGCAGCCGT", "switch fluorescence ratio": 1.03}
{"sequence": "GTGCAGTCA", "switch fluorescence ratio": 1.02}
{"sequence": "GTGCATAGTA", "switch fluorescence ratio": 1.03}
{"sequence": "GTGCATGAGC", "switch fluorescence ratio": 1.04}
{"sequence": "GTGCATTTTT", "switch fluorescence ratio": 0.981}
{"sequence": "GTGCCAATGT", "switch fluorescence ratio": 0.987}
{"sequence": "GTGCGCGTTT", "switch fluorescence ratio": 1.01}
{"sequence": "GTGCGGGATG", "switch fluorescence ratio": 1}
{"sequence": "GTGCGGTCGT", "switch fluorescence ratio": 0.983}
{"sequence": "GTGCTAACTT", "switch fluorescence ratio": 0.965}
{"sequence": "GTGCTACCTT", "switch fluorescence ratio": 1.02}
{"sequence": "GTGCTAGAAA", "switch fluorescence ratio": 1.01}
{"sequence": "GTGCTCTTTC", "switch fluorescence ratio": 0.99}
{"sequence": "GTGGAAA", "switch fluorescence ratio": 0.992}
{"sequence": "GTGGAAAACT", "switch fluorescence ratio": 1.01}
{"sequence": "GTGGAAGATG", "switch fluorescence ratio": 1.04}
{"sequence": "GTGGAATAGT", "switch fluorescence ratio": 0.98}
{"sequence": "GTGGAATATC", "switch fluorescence ratio": 1.09}
{"sequence": "GTGGAGAAAA", "switch fluorescence ratio": 0.994}
{"sequence": "GTGGAGAATA", "switch fluorescence ratio": 0.974}
{"sequence": "GTGGATCCGC", "switch fluorescence ratio": 1.62}
{"sequence": "GTGGATCTGC", "switch fluorescence ratio": 1.01}
{"sequence": "GTGGATTGCT", "switch fluorescence ratio": 0.946}
{"sequence": "GTGGATTTGT", "switch fluorescence ratio": 0.939}
{"sequence": "GTGGCCCCTT", "switch fluorescence ratio": 0.988}
{"sequence": "GTGGCCTACT", "switch fluorescence ratio": 0.972}
{"sequence": "GTGGCGAATC", "switch fluorescence ratio": 0.984}
{"sequence": "GTGGCGACTC", "switch fluorescence ratio": 0.98}
{"sequence": "GTGGCGATGT", "switch fluorescence ratio": 0.972}
{"sequence": "GTGGCGCATC", "switch fluorescence ratio": 1.04}
{"sequence": "GTGGCTAGCC", "switch fluorescence ratio": 1.04}
{"sequence": "GTGGGAGGTC", "switch fluorescence ratio": 0.927}
{"sequence": "GTGGGCACCT", "switch fluorescence ratio": 1}
{"sequence": "GTGGGCCCCC", "switch fluorescence ratio": 1.09}
{"sequence": "GTGGGCTTGG", "switch fluorescence ratio": 0.969}
{"sequence": "GTGGGGGT", "switch fluorescence ratio": 1.03}
{"sequence": "GTGGGTCAAA", "switch fluorescence ratio": 0.98}
{"sequence": "GTGGGTCCGT", "switch fluorescence ratio": 0.979}
{"sequence": "GTGGGTGTTT", "switch fluorescence ratio": 1.01}
{"sequence": "GTGGGTTTAT", "switch fluorescence ratio": 0.96}
{"sequence": "GTGGTAAGTA", "switch fluorescence ratio": 0.938}
{"sequence": "GTGGTACACA", "switch fluorescence ratio": 1.01}
{"sequence": "GTGGTACGTT", "switch fluorescence ratio": 0.969}
{"sequence": "GTGGTAGCCA", "switch fluorescence ratio": 1.01}
{"sequence": "GTGGTATTGC", "switch fluorescence ratio": 0.986}
{"sequence": "GTGGTCTTGG", "switch fluorescence ratio": 0.973}
{"sequence": "GTGGTGAATG", "switch fluorescence ratio": 0.993}
{"sequence": "GTGGTGACAG", "switch fluorescence ratio": 0.996}
{"sequence": "GTGGTTAGCT", "switch fluorescence ratio": 0.98}
{"sequence": "GTGGTTCAGG", "switch fluorescence ratio": 0.972}
{"sequence": "GTGGTTCTCT", "switch fluorescence ratio": 1.02}
{"sequence": "GTGGTTGGG", "switch fluorescence ratio": 0.945}
{"sequence": "GTGGTTTAAG", "switch fluorescence ratio": 0.987}
{"sequence": "GTGTAAAAAT", "switch fluorescence ratio": 1.05}
{"sequence": "GTGTAAAAGA", "switch fluorescence ratio": 0.972}
{"sequence": "GTGTAAGAGC", "switch fluorescence ratio": 0.974}
{"sequence": "GTGTACAGTT", "switch fluorescence ratio": 0.974}
{"sequence": "GTGTACGGAG", "switch fluorescence ratio": 1.01}
{"sequence": "GTGTACTATG", "switch fluorescence ratio": 1.03}
{"sequence": "GTGTACTCA", "switch fluorescence ratio": 1.01}
{"sequence": "GTGTAGACGC", "switch fluorescence ratio": 0.96}
{"sequence": "GTGTAGATTG", "switch fluorescence ratio": 1.03}
{"sequence": "GTGTAGCAAT", "switch fluorescence ratio": 3.74}
{"sequence": "GTGTAGCATG", "switch fluorescence ratio": 1.05}
{"sequence": "GTGTATAATT", "switch fluorescence ratio": 1.28}
{"sequence": "GTGTATCAAC", "switch fluorescence ratio": 0.951}
{"sequence": "GTGTATCTAT", "switch fluorescence ratio": 0.892}
{"sequence": "GTGTATGTCC", "switch fluorescence ratio": 0.992}
{"sequence": "GTGTATTTGT", "switch fluorescence ratio": 1.01}
{"sequence": "GTGTCACATG", "switch fluorescence ratio": 1.02}
{"sequence": "GTGTCAGGC", "switch fluorescence ratio": 1}
{"sequence": "GTGTCAGGTG", "switch fluorescence ratio": 2.65}
{"sequence": "GTGTCCAATC", "switch fluorescence ratio": 1.01}
{"sequence": "GTGTCTTGGC", "switch fluorescence ratio": 0.969}
{"sequence": "GTGTGAAGT", "switch fluorescence ratio": 1.02}
{"sequence": "GTGTGATATT", "switch fluorescence ratio": 0.982}
{"sequence": "GTGTGATGGC", "switch fluorescence ratio": 1.01}
{"sequence": "GTGTGCTGCG", "switch fluorescence ratio": 1}
{"sequence": "GTGTGGCACG", "switch fluorescence ratio": 1.01}
{"sequence": "GTGTGTATTG", "switch fluorescence ratio": 1.01}
{"sequence": "GTGTGTGCGT", "switch fluorescence ratio": 0.992}
{"sequence": "GTGTTATGAC", "switch fluorescence ratio": 1.05}
{"sequence": "GTGTTCCTAT", "switch fluorescence ratio": 1.02}
{"sequence": "GTGTTCGAA", "switch fluorescence ratio": 0.967}
{"sequence": "GTGTTCGCTC", "switch fluorescence ratio": 1.05}
{"sequence": "GTGTTGCCTG", "switch fluorescence ratio": 0.938}
{"sequence": "GTGTTGGACT", "switch fluorescence ratio": 0.953}
{"sequence": "GTGTTGTTTG", "switch fluorescence ratio": 0.989}
{"sequence": "GTGTTTAAAT", "switch fluorescence ratio": 1.05}
{"sequence": "GTGTTTACCC", "switch fluorescence ratio": 1.02}
{"sequence": "GTGTTTCGGA", "switch fluorescence ratio": 0.978}
{"sequence": "GTTAAACGCA", "switch fluorescence ratio": 1.06}
{"sequence": "GTTAAATGC", "switch fluorescence ratio": 1.04}
{"sequence": "GTTAACCACA", "switch fluorescence ratio": 1.03}
{"sequence": "GTTAAGTGGG", "switch fluorescence ratio": 0.983}
{"sequence": "GTTAATACTG", "switch fluorescence ratio": 0.934}
{"sequence": "GTTAATAGGT", "switch fluorescence ratio": 1.02}
{"sequence": "GTTAATATTG", "switch fluorescence ratio": 0.979}
{"sequence": "GTTAATGAAA", "switch fluorescence ratio": 1.02}
{"sequence": "GTTAATTTCG", "switch fluorescence ratio": 1.04}
{"sequence": "GTTAATTTCT", "switch fluorescence ratio": 1.03}
{"sequence": "GTTACCACAG", "switch fluorescence ratio": 1.03}
{"sequence": "GTTACCTACG", "switch fluorescence ratio": 1.59}
{"sequence": "GTTACGCCGT", "switch fluorescence ratio": 1.03}
{"sequence": "GTTACGGCCG", "switch fluorescence ratio": 1.07}
{"sequence": "GTTACTCATT", "switch fluorescence ratio": 1.17}
{"sequence": "GTTACTTTGC", "switch fluorescence ratio": 1}
{"sequence": "GTTAGAACGA", "switch fluorescence ratio": 0.985}
{"sequence": "GTTAGATCCC", "switch fluorescence ratio": 0.982}
{"sequence": "GTTAGCGACT", "switch fluorescence ratio": 0.98}
{"sequence": "GTTAGGATCG", "switch fluorescence ratio": 1.02}
{"sequence": "GTTAGTCTTT", "switch fluorescence ratio": 0.984}
{"sequence": "GTTAGTTTCA", "switch fluorescence ratio": 1.04}
{"sequence": "GTTAGTTTTA", "switch fluorescence ratio": 1.03}
{"sequence": "GTTATAATGA", "switch fluorescence ratio": 1.04}
{"sequence": "GTTATACAGA", "switch fluorescence ratio": 0.925}
{"sequence": "GTTATACCAG", "switch fluorescence ratio": 1.03}
{"sequence": "GTTATACCAT", "switch fluorescence ratio": 0.972}
{"sequence": "GTTATAGTAA", "switch fluorescence ratio": 0.95}
{"sequence": "GTTATATTAA", "switch fluorescence ratio": 0.943}
{"sequence": "GTTATCAACG", "switch fluorescence ratio": 1}
{"sequence": "GTTATCGAAA", "switch fluorescence ratio": 1}
{"sequence": "GTTATCGCAT", "switch fluorescence ratio": 1.04}
{"sequence": "GTTATCTAGG", "switch fluorescence ratio": 1}
{"sequence": "GTTATGAAGT", "switch fluorescence ratio": 1.01}
{"sequence": "GTTATGAGCG", "switch fluorescence ratio": 1}
{"sequence": "GTTATGCCTA", "switch fluorescence ratio": 0.931}
{"sequence": "GTTATGGCAG", "switch fluorescence ratio": 0.976}
{"sequence": "GTTATGGGTT", "switch fluorescence ratio": 0.963}
{"sequence": "GTTATTCTTT", "switch fluorescence ratio": 0.987}
{"sequence": "GTTCAAAGTG", "switch fluorescence ratio": 0.979}
{"sequence": "GTTCACGCAT", "switch fluorescence ratio": 1.22}
{"sequence": "GTTCACTGTG", "switch fluorescence ratio": 1.02}
{"sequence": "GTTCAGTGT", "switch fluorescence ratio": 0.98}
{"sequence": "GTTCATCGAG", "switch fluorescence ratio": 1.04}
{"sequence": "GTTCCAACCG", "switch fluorescence ratio": 1.06}
{"sequence": "GTTCCCATCA", "switch fluorescence ratio": 0.984}
{"sequence": "GTTCCCATGA", "switch fluorescence ratio": 1.04}
{"sequence": "GTTCCGATAT", "switch fluorescence ratio": 1.01}
{"sequence": "GTTCCGGAAC", "switch fluorescence ratio": 0.985}
